From PubChem BioAssay AID624172 (National Center for Advancing Translational Sciences (NCATS), 2012)
Hit rate of the full screen: of about 380,000 compounds, about 25 (0.007%) were called active. This list was built around the results that the source calls inconclusive (neither active nor inactive); the mix of calls is not that of the screen. Calls follow the shape of the dose curve; as a rule, active = well fitted activation curve with a large enough effect; inconclusive = small, poorly fitted or top-dose-only effect; inactive = no such curve, though single readings can be large or run the other way. No potency is given beside an inconclusive call; the fits are too rough.

Each molecule was assayed against Glucagon-like peptide 1 receptor (Homo sapiens) (UniProt P43220) (assay: qHTS of GLP-1 Receptor Agonists). Details: HEK293 GLP-1R CRE-luciferase, luminescence, 4-6 h, cells express a hypersensitive GLP-1R form; activation: at 45.6 µM (top of the series) unless noted.
For activation in this document: % of control where 0% means no effect.
Potency is read from the fitted curve at half-maximal effect; tags tell the direction and shape of the fitted curve.

UniProt P43220, sequence (P43220 whole entry, looked up): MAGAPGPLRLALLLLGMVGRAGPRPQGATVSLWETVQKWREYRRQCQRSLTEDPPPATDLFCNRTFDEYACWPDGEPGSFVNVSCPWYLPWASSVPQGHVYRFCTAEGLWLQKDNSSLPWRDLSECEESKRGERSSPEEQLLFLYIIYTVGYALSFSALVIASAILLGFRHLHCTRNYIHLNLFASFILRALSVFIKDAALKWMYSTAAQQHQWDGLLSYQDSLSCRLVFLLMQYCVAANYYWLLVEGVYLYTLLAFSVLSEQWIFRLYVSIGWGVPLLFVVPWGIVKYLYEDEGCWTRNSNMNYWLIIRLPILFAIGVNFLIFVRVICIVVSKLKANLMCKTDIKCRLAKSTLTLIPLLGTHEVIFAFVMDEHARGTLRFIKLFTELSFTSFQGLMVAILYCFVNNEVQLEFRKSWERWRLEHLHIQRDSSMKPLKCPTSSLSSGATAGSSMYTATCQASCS

Compound	Potency	activation
CN(c1ccccc1)c1nc(N)c([N+](=O)[O-])c(NCc2ccccc2)n1	inconclusive [activator, partial curve, poor fit]	–
COCCn1c(=O)[nH]c(=O)c2c1nc(-c1cc(Br)c3c(c1)OCO3)n2Cc1ccccc1	inconclusive [activator, partial curve]	–
Cc1ccc(N(CC(O)CN2CCCC2)S(=O)(=O)c2ccc(C)cc2)cc1 (stereo not drawn)	inactive	–
COc1ccc(C(CCN2CCCC(C)C2)c2c(OC)cc(OC)c3c(-c4ccccc4)cc(=O)oc23)cc1 (stereo not drawn)	inactive	–
CCN1CCN(c2nc3sc4c(c3c3ncnn23)CC(C)CC4)CC1 (stereo not drawn)	inconclusive [activator, partial curve, poor fit]	–
Cc1ccc2c(C)c(C(=O)N(C)C(C)c3ccon3)oc2c1C (stereo not drawn)	inconclusive [activator, single point]	–
CCCCN(CC)C(=O)c1cc2cc3ccc(Cl)cc3nc2o1	inconclusive [activator, partial curve, poor fit]	–
Cc1cc(Cl)c2oc(C(=O)N(C)Cc3cc(C)[nH]n3)c(C)c2c1	inconclusive [activator, partial curve]	–
CCCCCCC(=O)N(O)C1CC(=O)N(c2ccc(Cl)cc2)C1=O (stereo not drawn)	inactive	–
CCOC(=O)c1c(C)[nH]c(C2=NNC(=NC(C)COC)SC2)c1C (stereo not drawn)	inconclusive [activator, partial curve, poor fit]	–
Cc1c(C(=O)NC2CCCCC2)oc2ccccc12	inconclusive [activator, single point]	–
CCOC(=O)C1=C(N)Oc2cc(O)ccc2C1c1cccnc1 (stereo not drawn)	inactive	–
CC1CCN(C(=O)c2cc3nc(C4CC4)cc(C(F)(F)F)n3n2)CC1	inconclusive [activator, single point]	–
CN(C)CCNc1ncnc2c1sc1nc(N3CCCC3)c3c(c12)CC(C)(C)OC3	inconclusive [activator, partial curve]	–
Oc1ccc(Nc2ncnc3c2oc2ccccc23)cc1	inconclusive [activator, partial curve, poor fit]	–
Cc1ccc(C(=O)c2sc(Nc3ccccc3F)c(S(=O)(=O)c3ccccc3)c2N)c(C)c1	inactive	–
COc1ccc(N(CCCN2C(=O)c3cccc4cccc(c34)C2=O)C(=O)c2cccnc2)cc1	inconclusive [activator, single point]	–
CCN(CC)c1ccc(Nc2cc3n(c(=O)n2)CCc2cc(OC)c(OC)cc2-3)cc1	inconclusive [activator, partial curve, poor fit]	–
Nc1cc(N)nc(SCC(=O)Nc2ccc3c(c2)OCCCO3)n1	inconclusive [activator, partial curve, poor fit]	–
O=C(CCc1ccccc1)Nc1c(F)cccc1F	inconclusive [activator, partial curve, poor fit]	–
Cc1cc(C(F)F)n2ncc(C(=O)NCc3ccc(F)cc3)c2n1	inconclusive [activator, partial curve]	–
O=C(c1ccc2c(c1)OCO2)C1CCCN(Cc2ccc(OC(F)F)cc2)C1 (stereo not drawn)	inactive	–
COc1ccc(-c2nnc3n2N=C(C)CS3)cc1	inactive	–

Compound	Potency	activation
CCc1ccc2oc(=O)cc(CN3CCN(CCO)CC3)c2c1	inconclusive [activator, single point]	–
Nc1nc(Nc2cccc(F)c2)nc(NCc2ccco2)c1[N+](=O)[O-]	inconclusive [activator, single point]	–
CC(C)(C)c1ccc(NC(=O)C2=CC=CN3CCS(=O)(=O)N=C23)cc1	inactive	–
O=C(COc1ccccc1Br)Nc1ccc2c(c1)OCCCO2	inconclusive [activator, partial curve, poor fit]	–
CCCCc1ccc(NC(=O)Nc2cc(C)nn2C)cc1	inactive	–
COc1cc2c(cc1OC)-c1cc(OCc3ccccc3Cl)nc(=O)n1CC2	inconclusive [activator, partial curve]	–
Cc1c(Cl)cccc1NC(=O)CCn1cnnn1	inactive	–
O=C(N1CCN(Cc2ccccc2)CC1)C12CC3CC(CC(C3)C1)C2	inactive	–
COC(=O)CSc1nc(-c2ccccc2)nc2ccccc12	inconclusive [activator, single point]	–
COc1cccc(CNC(=O)c2ccc3c(Cl)c4c(nc3c2)CCCC4)c1	inactive	–
COc1ccc(-c2nc3ccc(C)cn3c2Cc2cccc(Cl)c2)cc1OC	inconclusive [activator, partial curve, poor fit]	–
Cc1c(C(=O)Nc2ccc(Br)cc2)cnn1C	inactive	–
COc1ccc(OC)c(/C=N/NC(=S)NCCc2ccccc2)c1	inconclusive [activator, single point]	–
Cc1ccc(NC(=O)Nc2ccc([N+](=O)[O-])cc2)nc1	–	inconclusive: 39% [activator]
CN(C)C(=O)c1ccc(NC(=O)c2cc(-c3ccco3)nc3ccccc23)cc1	inactive	–
Cn1c2ccc(F)cc2c2ncn(Cc3ccco3)c(=O)c21	inconclusive [activator, single point]	–
Cc1cccc(Nc2nc(N)nc(-c3oc4ccccc4c3C)n2)c1	inconclusive [activator, partial curve, poor fit]	–
CCOC(=O)c1c(C)[nH]c(C(=O)OCc2c(C)noc2C)c1C	inconclusive [activator, partial curve, poor fit]	–
COc1ccc(Nc2cc(C)nc(-n3nc(C)cc3C)n2)cc1	inconclusive [activator, partial curve, poor fit]	–
COc1ccc(S(=O)(=O)N2CCOC2CNC(=O)C(=O)NCCc2ccc(OC)c(OC)c2)cc1 (stereo not drawn)	inconclusive [activator, full curve, poor fit]	–
COc1ccccc1C/C(N)=N/OC(=O)c1ccc(C)c([N+](=O)[O-])c1	inconclusive [activator, single point]	–
CCOC(=O)C1(Cc2ccc(OC)cc2)CCN(C(=O)c2ccc3[nH]ccc3c2)CC1	inactive	–
COC(=O)c1c(C)oc2ccc(NS(=O)(=O)c3cccs3)cc12	inactive	–

Compound	Potency	activation
O=c1ccc2ccc(OCCOc3cccc(Cl)c3)cc2o1	inconclusive [activator, single point]	–
COc1cc(/C=C2\CC/C(=C\c3ccc(OCCO)c(OC)c3)C2=O)ccc1OCCO	inconclusive [activator, full curve]	–
CCc1ccc(C(=O)COC(=O)c2cc([N+](=O)[O-])ccc2NCCO)cc1	inconclusive [activator, partial curve]	–
Cc1cccc(NC2=NCC(=O)N2Cc2ccccc2)c1	inconclusive [activator, partial curve, poor fit]	–
COc1cc(-c2nc(Cc3ccccc3Cl)no2)cc(OC)c1OC	inconclusive [activator, partial curve, poor fit]	–
O=C(NCc1ccccc1Cl)c1ccc2ccccc2n1	inconclusive [activator, partial curve, poor fit]	–
CCCn1c(=O)c2c(C(=O)OCC)cc(-c3ccco3)nc2n(CCC)c1=O	inconclusive [activator, full curve, poor fit]	–
O=[N+]([O-])c1cccc(C(=NCc2ccccc2)NO)c1	inconclusive [activator, partial curve, poor fit]	–
COc1cc2cnc(-c3ccccc3F)cc2cc1OC	inconclusive [activator, partial curve, poor fit]	–
COc1cc(/C=C/c2ccc3cccc(O)c3n2)cc(Br)c1OC	inconclusive [activator, partial curve, poor fit]	–
COc1ccc(CCN2C(=O)NC(NC(=O)CCc3ccccc3)(C(F)(F)F)C2=O)cc1OC (stereo not drawn)	inconclusive [activator, single point]	–
Cc1ccc2[nH]c3c(=O)n(CCN4CCNCC4)cnc3c2c1	inactive	–
O=C(CSc1nc2ccccc2c(=O)[nH]1)c1cccs1	inconclusive [activator, partial curve, poor fit]	–
O=C1C2CC=CCC2C(=O)N1c1nccs1 (stereo not drawn)	inactive	–
COc1cc(/C=C2\S/C(=N/S(=O)(=O)c3ccccc3)NC2=O)c([N+](=O)[O-])cc1OC	inconclusive [activator, single point]	–
Cc1cc([N+](=O)[O-])ccc1P(=O)(O)c1ccc([N+](=O)[O-])cc1C	inactive	–
Cc1cc(C)c(C)c(S(=O)(=O)Nc2cccc(-n3cnnn3)c2)c1C	inconclusive [activator, partial curve, poor fit]	–
Cc1ccc2c(c1)c1c(c(=O)n(-c3ccccc3C)c(=O)n1CC(=O)NCc1ccccc1)n2C	inactive	–
O=C(O)c1cccc(N2CCCC2)c1	inactive	–
COc1ccc(/C=C2\Sc3ccc(C(=O)NC4CC4)cc3N(C)C2=O)cc1OC	inconclusive [activator, partial curve]	–
Nc1c2c(nc3sc4c(c13)CCCC4)-c1ccccc1CC2	inconclusive [activator, full curve, poor fit]	–
CCCCn1cnc2c(SCc3ccc(Br)cc3)nc(N)nc21	inconclusive [activator, partial curve, poor fit]	–
